# Data from ChEMBL document CHEMBL4888484, “Replenishing the malaria drug discovery pipeline: Screening and hit evaluation of the MMV Hit Generation Library 1 (HGL1) against asexual blood stage Plasmodium falciparum ,using a nano luciferase reporter read-out” (2022).
# About 540 (0.36%) of roughly 150,000 compounds showed an effect of 50% or more. The list shows a part of the results.
# Test system: Plasmodium falciparum
# Assay: Primary screen in NF54 nanoGlo assay, in single point, at 2uM, 72h; a lower Z score goes with more inhibition
# Format: functional, Erythrocyte
# Details: timepoint 72 hour
Compound,% Inhibition [%],Z score
C[C@@H](C(=O)NCc1nc(C2CCC(F)(F)CC2)no1)c1ccccc1,-17,2.22
CC(C)Cc1cc(NC2CC[C@@H](O)[C@@H](O)C2)ncn1 (stereo not given in full),-12,2.18
COCCN(c1ccncc1)S(C)(=O)=O,35,-4.67
O=C(c1ncc(F)cc1F)N1C[C@@H]2CC[C@H]1CN(C1Cc3ccccc3C1)C2,3,-0.52
CCc1onc(C)c1[C@@H]1CCCN1Cc1ccc(OC)c(Br)c1,-5,0.73
CC(C)c1ccc(NC[C@@H](C(C)C)N(C)C)nn1,-3,0.59
COc1ccc(C)nc1NS(=O)(=O)c1ccc2c(c1)CC(C)(C)O2,-12,1.58
COC(C)CS(=O)(=O)NC(C)CN1CCCCCC1 (stereo not given),-5,0.67
CC[C@H](NC(=O)Cc1cc(F)c(F)c(F)c1)C1CC(O)C1 (stereo not given in full),12,-1.67
CC1CCC(OC2CCN(C(=O)Nc3cn[nH]c3)CC2)CC1 (stereo not given),-25,2.31
Nc1nnc(-c2ccc(Br)o2)o1,10,-1.28
CC(C)N(Cc1nc(C(=O)N2CCOCC2)co1)Cc1ccc(Cl)cc1Cl,-3,0.32
O=S(=O)(NCCCOC[C@H]1CCCO1)c1ccc(Cl)cc1,-9,0.92
O=C1CCCN1CCCn1ccnc1-c1cccc(-n2cccn2)c1,-9,1.45
COCCNC(=O)CN(C)S(=O)(=O)c1cccc(F)c1F,-17,1.5
COc1cc(CN2CCO[C@H](c3cccnc3)C2)cc(OC)c1OC,-11,1.62
CNc1ccnc(-c2cnn(CC(=O)Nc3cc(C)nn3C)c2)n1,-11,2.15
Cc1cccc(N[C@@]2(C(F)(F)F)NC(c3ccccc3)=NC2=O)n1,-6,0.99
Cn1cc([C@@H](Nc2ccc3nncn3n2)C(C)(C)C)cn1,-6,1.09
Cn1nc(-c2ccc(Cl)s2)cc1NC(=O)CCc1ccncc1,-6,0.72
Cc1cccc(NC(=O)c2ccccc2NC(=O)CN2C(=O)N[C@](C)(c3ccc4c(c3)CCC4)C2=O)c1,3,-0.53
CCCc1noc(CN(C)C(=O)c2c[nH]c3cc(C)nn3c2=O)n1,-16,1.53

Compound,% Inhibition [%],Z score
Cc1ccc(CC[C@H](C)NC(=O)CN2C(=O)Cc3ccccc32)o1,-1,0.17
O=C(CN1C(=O)c2ccccc2C1=O)Nc1ccccc1-c1cn2c(n1)CCCC2,7,-1.31
Fc1cc(F)cc(OCc2ncnn2CC(F)F)c1,7,-1
COc1cc(-c2nc3c([nH]2)c(C2CC2)nn3C)cc2c1OCO2,-3,0.41
O=C(N[C@@H]1COC2(CCCC2)C1)c1n[nH]c2c1CCC2,-6,1
CCc1nc2ccc(C(=O)N3CCC(n4ccnn4)CC3)cc2s1,-7,1.07
CC(C)(NC(=O)c1cccs1)c1nc([C@H]2CCOC2)no1,0,0.09
CC(C)C[C@H](C)OC(=O)NCc1cc(=O)[nH]c(C2CC2)n1,-11,2
Cc1coc(-c2cccc(NC3C4CCOC4C34CCC4)c2)n1 (stereo not given),-2,0.29
C[C@H](NC(=O)c1ccoc1)C(=O)Nc1ccn(Cc2cccnc2)n1,-9,1.19
OC1CCN([C@H]2C[C@H]2c2ccccc2)CC1(F)F (stereo not given in full),-8,1.05
COc1ccccc1/C=C1\CCCC2C1=NN(C(=O)c1cc3nc(-c4ccc(C(C)C)cc4)cc(C(F)(F)F)n3n1)C2c1ccccc1OC (stereo not given),3,-0.54
Cn1cnc(C(=O)N[C@@H]2CCOc3c(F)ccc(F)c32)c1,-5,0.79
COc1ccc(F)c(CN2CCC([C@H](C)N3CCN(C)CC3)CC2)c1Cl,2,-0.43
O=C(c1ccco1)N1CCN(c2c(O)nc3ccc(Cl)cc3c2-c2ccccc2)CC1,1,-0.17
Cc1cc(C)c2c(C(=O)N(C)C)cc(-c3cnc(C)nc3)nc2c1,-10,1.69
CN(Cc1nc2ccc(F)cc2[nH]1)c1ccc(-c2nccn2C)nn1,-13,2.49
CNc1nc(C)cc(C(=O)Nc2cc(C3CCCCC3)[nH]n2)n1,-10,1.24
Fc1cc2c(c(CN3CCCC4CCCCC43)c1)OCOC2 (stereo not given),-14,2.12
CC(=O)Nc1ccc(S(=O)(=O)NCCn2c(-c3ccccc3)nc3cccnc32)cc1,-6,1
CNCc1ccc(CNC(=O)c2cn(-c3nc(C)cc(C)n3)nc2C(C)C)cc1,4,-0.82
Cc1nc(N2CCCCCCC2)ncc1[C@H](C)NCc1cccnc1,-17,1.54

Compound,% Inhibition [%],Z score
CN1CCO[C@H](CNC(=O)Nc2ccccc2C(C)(F)F)[C@H]1c1cnn(C)c1,-5,0.68
c1ccc(-n2nnnc2NC2CCCCCC2)cc1,-4,0.48
COc1ccccc1C(=O)N1CCN(Cc2ccc(N(C)C)nc2)CC1,2,-0.44
CCN(C)c1ccccc1NC(=O)c1cnc(C)cn1,-11,1.65
CCC[C@@H](C#N)NS(=O)(=O)c1ccc(CC)s1,-6,0.84
CS(=O)(=O)Nc1cccc2c1CCN(CCc1nc3ccccc3c(=O)[nH]1)C2,-10,1.97
CC1=C[C@@H](CN2CCN(C)CC2)[C@H](C(C)C)C[C@H]1Cc1nnc(-c2ccccc2)o1,17,-1.94
O=C(NCCCc1cccnc1)Nc1cc(N2CCOCC2)ccc1Cl,-2,0.32
CC(=O)NC1CCC(NC[C@H]2COC3(CCCCCC3)O2)CC1 (stereo not given in full),3,-0.31
O=C(C1CCCCO1)N1CC(O)(C(F)(F)F)c2cccnc21 (stereo not given),-1,0.16
O=C(Nc1cccc2cccnc12)C(=O)N1CCCCC[C@H]1c1ccccc1,8,-1.01
Cc1cc(OC(F)F)ccc1NC(=O)N1C[C@H]2CC=CC[C@H]2C1,4,-0.58
CN(C)Cc1cc(-c2ccccc2)ccc1OCC(=O)N1CCN(c2cccc(Cl)c2)CC1,-14,1.96
CCN[C@@H](CC(=O)Nc1ccc(Cl)c(Cl)c1)C(=O)O,-18,2.25
CS(=O)(=O)N1CCCC(NS(=O)(=O)[C@H]2C[C@@H]2c2ccccc2)C1 (stereo not given in full),13,-1.46
C=CCNC(=O)C(=O)NC1CCCCC1C (stereo not given),-3,0.44
C[C@H](F)CCNC(=O)N1CCC=C(F)C1,-12,1.98
CCCN1CCN(Cc2cc(C#N)c(C)[nH]2)CC1=O,-15,2.51
Cc1c[nH]c(CNC(=O)N(C)Cc2sccc2C)n1,6,-0.96
CC1=CCCC(C)C1CNCC(C)(O)c1cnn(C)c1 (stereo not given),6,-0.68
Cc1ncoc1C(=O)N1CCN(Cc2ccc3c(c2)OCO3)CC1,-1,0.09
CC(C)(CNC(=O)[C@@H]1CC[C@H](CN2CCOCC2)O1)n1cccn1,8,-1.4

Compound,% Inhibition [%],Z score
Cc1ccc(C(=O)NS(=O)(=O)CC2(C#N)CCC2)c(Cl)c1,-8,1.06
CN(C)CC(O)COc1ccc(S(=O)(=O)c2ccc(OCC(O)CN(C)C)c(Cl)c2)cc1Cl (stereo not given),54,-6.62
COc1ccc2c(c1OC)CC[C@@H]2Nc1cnn(C)c1C,-11,1.16
Cc1nn(C)c(C)c1NC(=O)[C@H](Cc1ccccc1)n1cnnn1,7,-0.95
Cc1cc(C(=O)N2CCO[C@H](C(C)(C)C)CC2)ncn1,-3,0.37
COc1ccc2cc(NC(=O)c3n[nH]c4c3CCCC4)cnc2c1,-3,0.43
O=C(Nc1ccccc1)N[C@H]1CCCN(C2CCCCCC2)C1,-3,0.41
Cc1ccsc1CN(C(=O)c1cnccn1)c1ccc(F)c(Cl)c1,0,0.05
O=C(Nc1cnc(CC2CC2)nc1)N1C[C@@H]2CS(=O)(=O)C[C@@H]2C1,-9,1.37
COc1ccc2[nH]c(-c3nc(CCN(C)C(=O)c4ccccc4OC)no3)cc2c1,-5,0.91
Cc1cc(C(=O)N2CC3CCC3(Nc3ccc(C(F)(F)F)cn3)C2)n(C)n1 (stereo not given),-1,0.13
O=C(CCc1nc2ccccc2[nH]1)N1CCN(S(=O)(=O)c2ccc3ccccc3c2)CC1,-2,0.34
COCc1nccc(Oc2ccc(C)nc2)n1,-6,1.23
CC1CCN(C(=O)c2ccc(NCc3ccncc3)nc2)CC1,-5,0.73
O=C(N[C@@H](Cc1ccncc1)C(=O)O)c1cccc(C2CC2)c1,14,-1.6
CN1C[C@@H](C(=O)N2CCC(O)(c3ccc(F)cc3)CC2)Oc2ccccc21,-11,1.44
CCn1cc(S(=O)(=O)N(CC(C)(C)C)c2cccnc2)cn1,-8,1.16
O=C(c1ccc2c(c1)CCCC2)N1CCC[C@H]1CO,-18,2.1
COc1ccc(CC(=O)N2c3ccccc3CCc3ccccc32)cc1,-1,0.15
